Results taken from the supplement of paper PMC3334620.
The full ranking holds about 33,000 sequences; the median of “E-score (-0.5 to 0.5)” is about -0.017, and the highest 2% start at about 0.3. This is one part of the list.

Molecular target: T1, Sut1 (UniProt P53032)
T1 sequence: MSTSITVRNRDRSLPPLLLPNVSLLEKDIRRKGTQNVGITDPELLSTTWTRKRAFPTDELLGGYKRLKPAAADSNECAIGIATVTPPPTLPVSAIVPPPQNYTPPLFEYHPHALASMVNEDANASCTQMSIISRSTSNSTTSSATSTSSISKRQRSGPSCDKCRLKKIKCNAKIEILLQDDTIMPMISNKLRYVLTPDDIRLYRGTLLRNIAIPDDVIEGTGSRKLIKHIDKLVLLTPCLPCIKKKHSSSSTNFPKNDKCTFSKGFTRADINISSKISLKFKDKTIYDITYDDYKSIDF
Assay: PBM E-score (8-mer binding enrichment) (E-score (-0.5 to 0.5)); higher = stronger / more preferred TF binding; most listed sequences are background and not binding sites
Details: protein concentration: 200 nM; construct: GST-full length
Procedure, shortened: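 PURExpress in vitro transcription/translation supplied GST-tagged yeast transcription factors, either full-length or DNA-binding domain. Applied at about 100-200 nM to universal all-10-mer Agilent arrays double-stranded by primer extension, the bound protein was detected with fluorescent anti-GST. E-scores, modified Wilcoxon-Mann-Whitney statistics, were given by the Universal PBM Analysis Suite to ungapped eight-base words pooled with their reverse complements after masliner normalisation.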

Sequence	PBM E-score
CGCTTAAA	0.0343
CGACCCCG	-0.0289
TAAGGATA	0.137
ATTATTCA	0.289
CTCCCAGC	-0.221
CCTTTATC	-0.00706
TAAGTGTA	0.0997
GCTGGGAA	-0.0912
ATCTCTCA	-0.0609
CGTTCGCA	-0.103
CCGGGTAG	0.00582
CGTAACGA	0.00374
ACTGCGGC	-0.0979
TTAGCCAA	-0.0233
TAACAGAA	0.213
CGCACCCC	-0.14
TATCTTCA	0.118
CGGAATAG	0.149
CGGTTGCC	-0.124
GAGAGAAC	0.166
CGCAGGGC	0.083
ACTGGAAT	0.0551
AATGTTAG	0.0845
GCTCCTGA	-0.0742
CACAAGCG	-0.13

Sequence	PBM E-score
GGTGCTAA	-0.0657
AATCAATG	0.182
AATCTACG	0.00117
GTGTGAGA	-0.0322
ACGGCCAC	-0.0203
ATGGTTGA	-0.0215
CACAACTA	0.181
CTCACAAA	0.121
AATTCAGG	0.0428
CGCGTGGC	-0.0836
CAGTGTAC	-0.25
TAACAATA	0.193
AATTTAGC	0.189
ACGGCGAT	-0.012
AAAGTTCT	0.149
CACTACAA	0.154
ACGCGACG	-0.211
CTCCCCGA	-0.0284
AAACTTCA	0.223
ACATAAGT	0.0486
GATTAAGC	0.171
CAAATCTG	0.023
ATCGAGAT	-0.0686
GCACTCCC	-0.156
TCGGTCAA	0.0249

Sequence	PBM E-score
CGTCGCTA	-0.0842
CGCCTTGA	-0.174
AAAGACCG	0.132
CCGACCTA	0.00057
GAAACTGA	-0.0944
ATAATTCA	0.249
GAAGGCGC	-0.162
GAGCCTAA	0.0539
TGCCGTAA	-0.168
CAAGAACC	0.105
CGTTAACG	-0.112
CGCAACTA	0.0777
CCGTTCCA	0.00457
TCTGACAA	0.0718
AGCTATTA	-0.0016
CAATCCAG	-0.0301
CTTTACGC	-0.0164
CACTATGG	-0.0771
AGCGTCAT	-0.0756
CAAAGCGG	0.153
ACAGTTAG	0.148
AGAGTGTG	0.024
GACTCGTA	-0.116
ACACATAG	-0.0486
ACTTGCAT	-0.0318

Sequence	PBM E-score
GCTACGTA	-0.097
ACAGCGGG	-0.124
ATTGCAGC	-0.076
ACCTAAAC	0.111
CCCATACA	-0.23
ATGCCTGG	-0.19
ATCCTAGC	-0.046
AGAAACCA	0.131
GGGGAAAA	0.091
CGGCTGCA	-0.153
GTTCTACA	-0.147
CATAGGAC	-0.121
CAGAACGA	-0.0073
AGATCGCC	-0.0712
CTTTATTC	0.0327
CCCTGGCC	-0.196
ATCGGTTA	0.252
GCCACCGC	-0.0803
GAAGAAAA	0.239
CATAGTCA	-0.104
CAAGATTG	0.0471
CCTGCAGG	-0.331
ACCCGTGC	-0.199
CACCCCTC	-0.352
ATAACTAC	0.272

Sequence	PBM E-score
AGAAGAGG	-0.226
CGACCTAA	0.0879
CGAGTCTC	-0.184
GTTTATAA	0.183
CCTTGCTA	-0.0778
GAGCCCCC	-0.31
CAAGCGGA	0.0999
ATACTTCA	0.134
ATCCCCGA	0.203
CAATAAGA	0.0491
ACGGCTCT	0.0391
ATCTTAAA	0.177
CCTCATTA	0.0882
ATTTGCTG	0.133
TCGCCAAA	0.0493
AGTTCTCG	0.122
AATATCAC	0.227
CAGCGACC	-0.221
AAGTCAAC	-0.0429
CTGCGATC	-0.166
AGCTGAGC	-0.245
AAAGGCAT	0.113
AATCCTTG	-0.0659
GGAGGCGA	-0.302
ATTCTCAG	0.00054

Sequence	PBM E-score
AACGCCCC	-0.0362
ATCAGAAA	0.0611
ACTTTCAT	0.137
AATAGGGC	-0.0135
CAGGTGGA	-0.221
TGTAACAA	0.0296
CGTCTGAC	-0.0115
CTTAACTA	0.0992
ATCTTAAG	0.117
CTAGTGAG	-0.0997
GAAAAAGC	0.0786
CAACTGAC	-0.119
ACGAAAAG	0.14
GCTCCACA	-0.174
AACACGTT	-0.0975
GCAATAGA	-0.051
ATGCTATA	-0.0454
AAGAAATA	0.177
CTCCTTTA	-0.0522
ATCACAAC	0.125
GTACATAC	0.124
AGCGCCGA	0.0701
AGAGCCTA	-0.0272
TCTGCAAA	-0.0765
ATTGCATC	0.0862

Sequence	PBM E-score
AGAAAGTG	-0.0157
ATGAGTAA	-0.0418
CTTTTCCC	-0.0342
AAAGTAAA	0.22
AAGAAGAT	0.127
CGGTGAAA	0.206
ATACAATG	0.243
GGGGCACC	-0.175
AACATGGC	-0.159
AATGGGAA	0.0116
CCGCAGAG	-0.241
AACACGAG	-0.016
AAGCATGG	-0.176
ACACAAAT	0.144
ACTGATAT	0.137
AGCTAACC	-0.141
ATTGCATA	0.0701
ATGATGCA	0.142
CGATAACA	0.0126
CGCTACCC	-0.135
CAACACTG	-0.175
CGGCGATA	0.192
